# The supplement of paper PMC3334620
# In all, about 33,000 sequences were measured (“E-score (-0.5 to 0.5)”: median about -0.012, highest 2% from about 0.27 on). This is one part of the list.
# Target: T1, Vhr1 (UniProt P40522)
# T1 sequence: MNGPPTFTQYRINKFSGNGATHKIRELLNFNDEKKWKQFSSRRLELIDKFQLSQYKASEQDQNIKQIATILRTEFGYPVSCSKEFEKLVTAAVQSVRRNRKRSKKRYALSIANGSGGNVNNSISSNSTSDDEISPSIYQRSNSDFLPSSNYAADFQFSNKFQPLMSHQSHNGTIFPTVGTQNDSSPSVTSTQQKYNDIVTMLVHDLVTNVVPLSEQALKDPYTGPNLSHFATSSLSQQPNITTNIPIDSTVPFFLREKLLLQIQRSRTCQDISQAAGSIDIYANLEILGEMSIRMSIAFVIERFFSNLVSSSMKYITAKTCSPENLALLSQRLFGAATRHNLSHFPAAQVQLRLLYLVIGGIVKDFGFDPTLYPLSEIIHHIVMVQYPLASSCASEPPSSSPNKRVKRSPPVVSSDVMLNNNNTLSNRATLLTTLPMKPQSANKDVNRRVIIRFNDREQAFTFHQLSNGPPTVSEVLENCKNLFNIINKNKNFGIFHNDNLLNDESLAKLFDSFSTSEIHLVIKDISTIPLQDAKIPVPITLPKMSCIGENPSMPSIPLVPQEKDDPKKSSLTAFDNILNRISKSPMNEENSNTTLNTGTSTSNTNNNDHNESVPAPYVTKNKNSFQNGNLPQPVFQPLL
# Assay: PBM E-score (8-mer binding enrichment) (E-score (-0.5 to 0.5)); higher = stronger / more preferred TF binding; most listed sequences are background and not binding sites
# Settings: protein concentration: 200 nM; construct: GST-full length
# Method: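 Universal 'all 10-mer' protein binding microarrays (Agilent AMADID 015681) probed with GST-tagged S. cerevisiae TFs (full-length or DBD) made by in vitro transcription/translation (PURExpress), about 100-200 nM. Bound TF was detected with fluorescent anti-GST. Each ungapped 8-mer (which stands for itself and its reverse complement) is scored by the PBM enrichment score (E-score), a modified Wilcoxon-Mann-Whitney statistic from -0.5 to +0.5, computed with the Universal PBM Analysis Suite. Scale: above 0.35 generally sequence-specific binding.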
row,Sequence,PBM E-score
1,CGTTGGTA,0.0442
2,GACTTTGA,-0.204
3,CCCAGTGA,0.0456
4,ATAATATC,0.0835
5,AAGTCGGG,-0.112
6,TATTAGCA,0.135
7,CCGTAGGC,-0.0447
8,GACAGCCC,-0.0309
9,ACATGCAC,0.0124
10,GGATAGTA,0.22
11,CTGATTAC,0.278
12,GTCACCGA,0.256
13,ACGATTCA,0.112
14,AGGGTAAT,0.148
15,GGCCGACC,-0.168
16,TATGCAAA,-0.12
17,AAATGCTA,0.00222
18,AACGGGCA,-0.194
19,AGAATATA,-0.0382
20,AATGCATC,-0.0108
21,TCCTCAAA,-0.133
22,CGCTCCCC,-0.16
23,CAGCTTGA,0.0883
24,AGTCTAAG,-0.0818
25,AGTACATA,0.156

row,Sequence,PBM E-score
1,GCAGTTCC,-0.059
2,ATTCTCAA,0.122
3,AGGTTAAA,-0.0835
4,CGAGGGCG,-0.11
5,ACACAGAC,0.25
6,ATATATGG,0.218
7,ACCATATC,0.193
8,AAAAAGCT,-0.231
9,CTCACTAC,0.033
10,AATTAGAG,-0.144
11,CCTCGTCA,0.17
12,ACTCAGTG,0.245
13,CTAGTTGA,0.202
14,CCCTGTAA,-0.13
15,ACGGATAA,0.109
16,CCACTTCC,0.123
17,AGTTTGAC,-0.0328
18,ATCAAGAC,0.0901
19,GAAACACA,0.0985
20,GACCCATC,0.188
21,CGCGGAAA,-0.0658
22,CAGCGACA,-0.0517
23,CTGCTGCA,0.0624
24,CGCAGAAC,0.0458
25,CATTTCGG,-0.202

row,Sequence,PBM E-score
1,CAAAGATG,-0.0482
2,TCCTCGCA,0.0367
3,CCATCCTC,0.0474
4,AGTCCTGG,0.00405
5,AACTTTGA,-0.0541
6,ACCCGTCG,-0.216
7,AGGAAAGA,-0.121
8,CGCATCTC,-0.0205
9,AGCACTCG,0.047
10,ACAGGTTG,0.0217
11,CCGTTTCA,-0.116
12,GATTGGAA,-0.0275
13,GATACTAA,0.18
14,AAGTCATA,0.316
15,AGAGGGGA,-0.129
16,GTCTCACA,0.177
17,AACCGGCG,0.225
18,ATGGAAAG,-0.109
19,GCAACCGC,-0.117
20,ACGCAAGA,-0.0431
21,CTCTACGA,-0.156
22,TACATAGA,0.0658
23,AGCCTCCG,-0.0751
24,CCACGCTA,-0.246
25,CAGTGTCA,0.113

row,Sequence,PBM E-score
1,CACGAAGA,0.24
2,ATGTCATC,0.0412
3,CAACAGCC,-0.132
4,CCGGTACA,0.00788
5,AGTGCCAG,-0.121
6,ACGTAGTA,-0.102
7,ACGGGCGA,0.0368
8,ACTGATGG,0.0219
9,ACAGGTGC,-0.067
10,ATCTTCAA,-0.0741
11,AATATGAG,-0.0304
12,AAGGAATG,0.00578
13,GACGAATA,0.117
14,CGTACAGA,-0.235
15,AGGGCATG,-0.0187
16,AGCCTACA,-0.0947
17,ACCGTGAA,-0.115
18,GGGCCTGA,-0.21
19,CACTCGCC,0.147
20,ACACGCTC,0.163
21,GGGGCGCA,0.0714
22,ACATTGAA,0.00322
23,ATCTAGCC,-0.136
24,CAGACTCG,0.0994
25,ACCTCAGC,0.0177

row,Sequence,PBM E-score
1,CTTGCCGA,-0.0901
2,CCGCACCG,0.072
3,ATTAGCTC,-0.0265
4,ATAACCTA,0.0304
5,GTCTGCAA,-0.216
6,AGGGGATC,-0.177
7,ATTGTCAG,0.0757
8,AGCGACCC,0.073
9,AGATAAGG,-0.108
10,AGGTATAT,0.0892
11,ACAAGCCT,0.00748
12,TAGTGACA,0.157
13,GGTAGCTA,0.00361
14,GAGAGACA,0.0226
15,CGTAATCC,-0.104
16,ACTGTACC,0.0464
17,AGCCGCAG,-0.122
18,AAGCATTC,-0.184
19,ATTCCGAG,0.0199
20,CGGGGACC,0.146
21,TTAAGTAA,-0.211
22,CTAAGGAC,-0.0588
23,ATTTATGC,-0.107
24,GACAAAAC,0.0548
25,ACGCTTAG,-0.291

row,Sequence,PBM E-score
1,AATCGTCT,0.0771
2,AGACTACA,0.17
3,CAGGTTCG,-0.0112
4,AGTGTATG,0.0962
5,AGGCGTCA,-0.227
6,CTAAGGTA,-0.00806
7,ACTTGTCC,-0.145
8,ATTAGCGA,0.142
9,ATTACATC,0.0987
10,CGGAGGCC,-0.089
11,CACTGGCA,0.0257
12,TCATACAA,0.166
13,CCAGCTCG,0.161
14,ATATTCTG,-0.186
15,CTATTGAA,-0.147
16,AATACGTC,-0.096
17,CTTACGCA,-0.179
18,AAAGAGGT,-0.0464
19,ACCACTAT,0.131
20,AAGGGATT,-0.25
21,ACTGAGGA,0.0736
22,ACCCAGCG,0.106
23,ATTTAGCC,-0.0477
24,CCATTTAC,-0.0973
25,TGCATGAA,-0.0166

row,Sequence,PBM E-score
1,CCACTAAC,0.0211
2,CACCGTCG,-0.0456
3,AGCAGATA,-0.0255
4,CTTGCATA,-0.119
5,GACTCAAC,0.42
6,ATTTTGAA,-0.159
7,ATTTACGG,0.0365
8,GATACAAC,0.091
9,CTCTGGTA,0.0272
10,AGCCGTGG,-0.222
11,ACAAGGTG,0.0576
12,GACGAGGA,0.00776
13,TATCGCGA,0.198
14,ACCAACTG,0.14
15,AGATCGTC,-0.193
16,CATAGTGG,0.115
17,AGAAGCAG,-0.151
18,GGCGATAA,-0.0228
19,CACATCCC,0.223
20,ATGATGAA,0.175
21,AGGCCGAA,-0.0649
22,GACATTAC,0.112
